# Results reported in the supplement of paper PMC4967469.
# A lower IC50 marks a more sensitive line; a fit beyond the top or the lowest dose is shown as a bound at that dose. AUC is the area under the same curve over the 256-fold range up to the top dose, as a fraction; it is 1 without any effect and falls as sensitivity rises. For part of these data: Where the top dose is marked as inferred, it was derived from the fitted curves, not read from the paper. For part of these data: Where an entry number is given, a second screen of the drug exists; the two often differ.
# What was measured:
# Test in all cases: Viability of human cancer cell lines after 72 h of drug (GDSC screen)
# [1] = compound: O=S(=O)(O)c1ccc2cc(N=Nc3cc(S(=O)(=O)O)c4cccnc4c3O)ccc2c1 [NSC-87877]; details: top dose 16 µM; top dose inferred
# Procedure: (§1)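 Human cancer cell lines in 384-well plates, medium with 10% serum, drug for 72 h over a 256-fold dose range (nine 2-fold or five 4-fold steps up to the top dose). Adherent lines were fixed and stained with the nucleic acid dye Syto60, suspension lines read with resazurin; signal relative to control wells, capped at 0 and 100%. One two-parameter sigmoid per drug and line, fitted in a mixed model over all curves with the slope shared within a line.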
# [2] = compound: Cc1c(N)nc([C@H](CC(N)=O)NC[C@H](N)C(N)=O)nc1C(=O)N[C@H](C(=O)N[C@H](C)[C@@H](O)[C@H](C)C(=O)N[C@H](C(=O)NCCc1nc(-c2nc(C(=O)NCCC[S+](C)C)cs2)cs1)[C@@H](C)O)[C@@H](OC1OC(CO)C(O)C(O)C1OC1OC(CO)C(O)C(OC(N)=O)C1O)c1cnc[nH]1 [Bleomycin]
# Procedure: as §1
# [3] = compound: O=C(Nc1cccc(Nc2ncc(Br)c(NCCc3cnc[nH]3)n2)c1)N1CCCC1 [BX-912]; details: top dose 10.24 µM; top dose inferred
# Procedure: as §1
# [4] = compound: Cc1ccc(NC(=O)c2ccc(CN3CCN(C)CC3)cc2)cc1Nc1nc(-c2cccnc2)cs1 [Masitinib]; details: top dose 20 µM
# Procedure: as §1
# [5] = compound: O=C(/C=C/c1ccc(CN(CCO)CCc2c[nH]c3ccccc23)cc1)NO [LAQ824]; details: top dose 1.024 µM; top dose inferred
# Procedure: as §1
# [6] = compound: CCCC(=O)OCc1ccc(OC(=O)/C=C(C)/C=C/C=C(C)/C=C/C2=C(C)CCCC2(C)C)cc1 [VNLG/124]; details: top dose 5.12 µM; top dose inferred
# Procedure: as §1
# [7] = compound: COc1cc(N2CCC(C(N)=O)CC2)ccc1Nc1nc(N)c(Cl)c(Nc2ccccc2S(=O)(=O)C(C)C)n1 [HG-5-88-01]; details: top dose 10 µM; top dose inferred
# Procedure: as §1
# [8] = compound: CC/C(=C(\c1ccccc1)c1ccc(OCCN(C)C)cc1)c1ccccc1 [Tamoxifen]; details: top dose 5 µM
# Procedure: as §1
# [9] = compound: O=C(Nc1ccc(OC(F)(F)F)cc1)c1sccc1NCc1ccnc2ccccc12 [OSI-930]; details: top dose 10.24 µM
# Procedure: as §1
# [10] = compound: CN(NC(=O)CC(=O)NN(C)C(=S)c1ccccc1)C(=S)c1ccccc1 [Elesclomol]; details: top dose 0.2 µM; top dose inferred
# Procedure: as §1
# [11] = top dose 64 µM, screen: GDSC drug entry 190
# [12] = top dose 50 µM, screen: GDSC drug entry 1378, top dose inferred
Cell Line,AUC [1],IC50 [1] [µM],"AUC [2, 11]","IC50 [2, 11] [µM]",AUC [3],IC50 [3] [µM],AUC [4],IC50 [4] [µM],AUC [5],IC50 [5] [µM],AUC [6],IC50 [6] [µM],AUC [7],IC50 [7] [µM],AUC [8],IC50 [8] [µM],AUC [9],IC50 [9] [µM],AUC [10],IC50 [10] [µM],"AUC [2, 12]","IC50 [2, 12] [µM]"
"TMK-1 (stomach, adherent)",0.986,> 16,0.377,1.79,0.98,> 10.2,0.969,> 20,0.416,0.0371,0.982,> 5.12,0.938,> 10,0.984,> 5,0.974,> 10.2,0.61,0.0255,,
"TOV-21G (ovary, adherent)",0.965,> 16,0.886,> 64,0.842,8.12,0.851,17.5,0.832,0.736,0.983,> 5.12,0.983,> 10,0.97,> 5,0.918,> 10.2,0.44,0.00842,0.233,0.484
"TOV-112D (ovary, adherent)",0.952,> 16,0.18,0.432,0.781,4.28,0.877,> 20,0.364,0.0269,0.978,> 5.12,0.958,> 10,0.928,> 5,0.942,> 10.2,0.576,0.0202,0.437,2.1
"TT2609-C02 (thyroid, adherent)",0.882,> 16,0.154,0.312,0.8,5.35,0.923,> 20,0.256,0.0121,0.975,> 5.12,0.985,> 10,0.985,> 5,0.963,> 10.2,0.643,0.0321,0.806,27.4
"TT (thyroid, adherent)",0.97,> 16,0.84,> 64,0.885,> 10.2,0.976,> 20,0.644,0.188,0.972,> 5.12,0.977,> 10,0.98,> 5,0.978,> 10.2,0.68,0.049,0.815,42.3
"TUR (B-cell lymphoma, suspension)",0.985,> 16,0.735,17.5,0.75,3.13,0.793,8.38,0.343,0.0244,0.859,3.72,0.919,> 10,0.928,> 5,0.91,> 10.2,0.77,0.0704,0.542,4.04
"TYK-nu (ovary, adherent)",0.985,> 16,0.458,3.05,0.983,> 10.2,0.869,> 20,0.621,0.142,0.985,> 5.12,0.94,> 10,0.972,> 5,0.979,> 10.2,0.516,0.0139,0.391,1.53
"UACC-62 (melanoma, adherent)",0.988,> 16,0.878,63.5,0.988,> 10.2,0.91,> 20,0.583,0.108,0.984,> 5.12,0.966,> 10,0.968,> 5,0.959,> 10.2,0.588,0.0218,0.718,12.8
"UACC-893 (breast, adherent)",0.943,> 16,0.771,33.2,0.983,> 10.2,0.886,> 20,0.582,0.116,0.983,> 5.12,0.98,> 10,0.98,> 5,0.945,> 10.2,0.878,> 0.2,0.741,19.8
"VA-ES-BJ (soft tissue, adherent)",0.985,> 16,0.21,0.528,0.94,> 10.2,0.889,> 20,0.507,0.0671,0.981,> 5.12,0.984,> 10,0.953,> 5,0.976,> 10.2,0.426,0.00774,0.414,1.79
"VAL (B-cell lymphoma, suspension)",0.98,> 16,0.191,0.477,0.651,1.68,0.737,5.96,0.539,0.0817,0.951,> 5.12,0.982,> 10,0.982,> 5,0.916,> 10.2,0.692,0.0432,0.861,42.7
"VCaP (prostate, adherent)",0.972,> 16,0.928,> 64,0.875,> 10.2,0.915,> 20,0.371,0.0278,0.965,> 5.12,0.862,9.11,0.986,> 5,0.951,> 10.2,0.627,0.0284,0.958,> 50
"VMRC-MELG (melanoma, adherent)",0.989,> 16,0.607,7.97,0.986,> 10.2,0.979,> 20,0.571,0.101,0.988,> 5.12,0.953,> 10,0.988,> 5,0.974,> 10.2,0.877,> 0.2,0.985,> 50
"VMRC-RCZ (kidney, adherent)",0.982,> 16,0.374,1.69,0.847,9.47,0.874,> 20,0.448,0.0451,0.978,> 5.12,0.976,> 10,0.979,> 5,0.968,> 10.2,0.812,0.129,0.806,30.8
"WIL2-NS (lymphoid neoplasm, suspension)",0.978,> 16,0.21,0.698,0.678,1.81,0.891,15.6,0.315,0.0218,0.96,> 5.12,0.991,> 10,0.979,> 5,0.694,1.99,0.806,0.0801,0.323,1.11
"WM35 (melanoma, adherent)",0.969,> 16,0.103,< 0.25,0.957,> 10.2,0.781,8.36,0.289,0.0162,0.985,> 5.12,0.888,> 10,0.975,> 5,0.936,> 10.2,0.333,0.00426,0.748,16.3
"WM278 (melanoma, adherent)",0.914,> 16,0.31,1.09,0.899,> 10.2,0.886,> 20,0.474,0.0538,0.984,> 5.12,0.897,> 10,0.977,> 5,0.971,> 10.2,0.585,0.022,0.588,5.63
"WM1552C (melanoma, adherent)",0.984,> 16,0.185,0.453,0.922,> 10.2,0.876,> 20,0.549,0.0869,0.967,> 5.12,0.969,> 10,0.986,> 5,0.963,> 10.2,0.881,> 0.2,0.768,18.8
"WM-115 (melanoma, adherent)",0.9,> 16,0.548,5.58,0.963,> 10.2,0.753,8.07,0.966,> 1.02,0.982,> 5.12,0.963,> 10,0.98,> 5,0.919,> 10.2,0.622,0.0293,0.517,3.51
"WSU-DLCL2 (B-cell lymphoma, suspension)",0.947,> 16,0.503,4.08,0.821,4.66,0.819,8.96,0.989,> 1.02,0.993,> 5.12,0.417,0.385,0.569,0.467,0.929,> 10.2,0.608,0.0234,0.491,2.97
"huH-1 (liver, adherent)",0.984,> 16,0.926,> 64,0.984,> 10.2,0.947,> 20,0.681,0.234,0.975,> 5.12,0.9,> 10,0.982,> 5,0.971,> 10.2,0.459,0.0094,0.783,26.5
"no-10 (glioma, adherent)",0.983,> 16,0.745,24.1,0.965,> 10.2,0.956,> 20,0.552,0.092,0.983,> 5.12,0.934,> 10,0.976,> 5,0.979,> 10.2,0.951,> 0.2,0.829,41
"no-11 (glioma, adherent)",0.983,> 16,0.737,23,0.932,> 10.2,0.929,> 20,0.654,0.192,0.983,> 5.12,0.98,> 10,0.979,> 5,0.951,> 10.2,0.568,0.0201,0.764,22.6
